The whole screen tested about 420,000 compounds, of which about 50,000 (12%) were called active. This list was built around the results that the source calls inconclusive (neither active nor inactive); the mix of calls is not that of the screen. The call rests on the fitted dose curve; in most records, active means well fitted inhibition curve with a large enough effect; inconclusive means small, poorly fitted or top-dose-only effect; inactive means flat fitted curve, though single readings scatter. No potency is given beside an inconclusive call; the fits are too rough.
Assay: qHTS for Inhibitors of human tyrosyl-DNA phosphodiesterase 1 (TDP1): qHTS in cells in presence of CPT; further: nearly all actives have a fitted effect of over 55% in size
Conditions: chicken DT40 Tdp1-/-;hTDP1 cells + 20 nM CPT, ATP luminescence, 48 h; activity change, negative = growth inhibition: at 46.2 µM (top of the series) unless noted
In short: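 Cell growth measured by CellTiter-Glo luminescence after a minimum 48 h, 37 C compound exposure with 20 nM CPT in Tdp1-knockout DT40 cells stably expressing hTDP1, seeded 400/well; qHTS titration format.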
On the % scale 0 is the no-effect control and ±100 the full control effect; potency means the concentration at half of the fitted maximal effect; tags describe the fitted curve by direction and shape.

SMILES	Potency	activity change, negative = growth inhibition
Cc1ccc(NC(=O)CN2CCc3cc4c(cc3C2)OCCCO4)cc1C	inconclusive [inhibitor, partial curve, poor fit]	
S=c1[nH]c2ccccc2c2ccccc12	inconclusive [inhibitor, single point]	
CCOC(=O)C1=C(N)OC2=C(C(=O)CC(C)(C)C2)C1c1ccoc1 (stereo not given)	inconclusive [inhibitor, single point]	
Cc1n[nH]c(=S)n(/N=C/c2ccccn2)c1=O	inconclusive [inhibitor, single point]	
O=C(Nc1ccc(N2CCN(C(=O)c3ccccc3)CC2)cc1)c1ccc(Br)o1	active: 16.4 µM	
COc1ccccc1CCc1nnc(CCC(=O)NCC[C@@H]2C[C@@H]3C=C[C@H]2C3)o1	active: 14.6 µM	
CC(=O)NC1CC2CCCC(C1)N2C(=O)Nc1ccccc1C (stereo not given)	inactive	
CN(c1ccc(OCC(=O)NCCc2ccccc2)cc1)S(=O)(=O)c1ccc(Cl)cc1	inconclusive [inhibitor, single point]	
CCc1ccc(-n2c(SCc3cccc(F)c3)nc3[nH]ncc3c2=O)cc1	active: 20.6 µM	
CC(C)c1nc(SCC(=O)NC2CCCCC2)c2ccccc2n1	inactive	
CCS(=O)(=O)Nc1cc(C(=O)N[C@H]2CCCCNC2=O)c2c(c1)nc(-c1ccccc1)n2C	inactive	
CCn1c(=O)cc(OCC(=O)Nc2ccc(C)c(F)c2)c2ccccc21	inconclusive [inhibitor, single point]	
COc1cccc(-c2cc3nc(C)c(C)c(N4CCN(C(=O)c5ccoc5)CC4)n3n2)c1	active: 13 µM	
COC(=O)/C(=N/Nc1ccccc1OC)N1CCCc2ccccc21	inconclusive [inhibitor, single point]	
Cn1c2ccccc2c(=O)c2c(=O)n(C3CCCCC3)c(-c3cccs3)nc21	inconclusive [inhibitor, single point]	
O=C1NC(=O)/C(=C\c2ccc(N3CCOCC3)o2)N1	inactive	
Nc1n[nH]c(-c2ccccc2)c1-c1ccccc1	inactive	
Cc1ccc2nc(N(CCCN(C)C)C(=O)c3cc(-c4cccs4)nc4ccccc34)sc2c1	active: 16.4 µM	
CC(C)OC(=O)c1cc(C(=O)OC(C)C)cc([N+](=O)[O-])c1	inactive	
CN1OC[C@@H]2CN(C(=S)NCCc3ccccc3)[C@H](c3ccccc3Br)C[C@@H]21	inconclusive [inhibitor, single point]	
c1cncc(CNc2cc(-c3ccoc3)ncn2)c1	inactive	
Cc1cc(Cl)ccc1C1=CC(=O)C[C@H](c2ccc(F)cc2)C1	inconclusive [inhibitor, single point]	
O=C1CC(C(=O)Nc2ccccc2)N=C(N2CCCCC2)N1 (stereo not given)	inactive	
CCOc1ccc(Cc2noc3c2C(=O)CC(C)(C)C3)cc1OCC	inactive	

SMILES	Potency	activity change, negative = growth inhibition
Cc1ccc2nc(NCCO)nc(-c3ccccc3)c2c1	inconclusive [inhibitor, single point]	
CN[C@@H]1[C@@H](O[C@H]2O[C@H](CO)[C@@H](N)[C@H](O)[C@H]2O)O[C@H]2C[C@@H](N)[C@@H](O[C@H]3[C@H](O)[C@@H](O)[C@H](N)C[C@@H]3N)O[C@@H]2[C@@H]1O	inactive	
Cc1csc(C2=C(O)CN(CCc3ccccc3)C2=N)n1		inconclusive: -31.5% [inhibitor]
COC(=O)c1ccc(-n2c(C)cc(C(=O)CCl)c2C)cc1	active: 2.91 µM	
O=C(COc1ccc(-n2ccnc2)cc1)Nc1cccc(Cl)c1	inconclusive [inhibitor, partial curve, poor fit]	
C=CCc1cc(OC)ccc1OCCOCCN1CCc2ccccc2C1	inconclusive [inhibitor, single point]	
O=S(=O)(NC1CCCCCC1)c1ccc(Br)s1		inconclusive: -33.2% [inhibitor]
CCN1CSC(=S)N(Cc2ccccc2)C1	active: 2.59 µM	
CCN(CC)C(=O)c1cccc(NC(=O)c2cc(-c3ccccn3)nc3ccccc23)c1	inconclusive [inhibitor, single point]	
CCC(CC)C(C(=O)NC1CCCC1)N1CCN(c2cc(C)nc3ccccc23)CC1 (stereo not given)	inconclusive [inhibitor, single point]	
Cc1cc(C(=O)CSc2nnc(-c3ccccc3F)o2)c(C)n1Cc1cccs1	active: 23.1 µM	
CCOC(=O)c1ccc(NS(=O)(=O)c2cc3c4c(c2)CCN4C(=O)CC3)cc1	inconclusive [inhibitor, single point]	
COc1ccc([C@H]2C[C@@H](n3cc(COC(=O)c4ccccc4)nn3)[C@H](O)CN2C(=O)c2cccs2)cc1	inconclusive [inhibitor, partial curve, poor fit]	
CCCC(=O)c1ccc(OC(=O)c2c(-c3ccccc3Cl)noc2C)cc1	inconclusive [inhibitor, single point]	
COc1ccc(CN2C(=O)C(CC(C)C)Nc3ncnc(N4CCN(c5ccccn5)CC4)c32)cc1 (stereo not given)	inconclusive [inhibitor, single point]	
CC(C)(C)NC(=O)COc1ccc(CNCc2cccs2)cc1	inconclusive [inhibitor, single point]	
O=C(CCn1c(=O)oc2ccccc21)NCc1ccco1	inactive	
O=C(CC1C=Cc2ccccc2N1C(=O)c1ccccc1)c1ccccc1 (stereo not given)	inconclusive [inhibitor, single point]	
Cc1ccc(NC(=O)c2ccc(S(=O)(=O)N3CCCCC3)cc2)nc1	inconclusive [inhibitor, single point]	
O=C(NCCCN1CCOCC1)c1cc(-c2cccc(Br)c2)nc2ccccc12	inconclusive [inhibitor, single point]	
CCOC(=O)c1c(CN2CCOCC2)n(-c2ccccc2)c2cc(Br)c(O)cc12	inactive	
N#Cc1c(NC(=O)CS(=O)(=O)c2ccc(Cl)cc2)sc2c1CCCCC2	inconclusive [inhibitor, partial curve]	
CCc1ccc(-n2c(=O)c3cccnc3n2CC(=O)Nc2ccccc2C(F)(F)F)cc1	inconclusive [inhibitor, single point]	
O=c1ccn(C2OC(COP(=O)(O)OP(=O)(O)OP(=O)(O)O)C(O)C2O)c(=O)[nH]1 (stereo not given)	inactive	

SMILES	Potency	activity change, negative = growth inhibition
CCOC(=O)[C@]12CCC=C1N(Cc1cccc3ccccc13)C(=O)[C@H](CC(=O)N1CCC(c3ccccc3)CC1)C2	inconclusive [inhibitor, single point]	
CC(C)N(CCNC(=O)c1oc(=O)c2ccccc2c1-c1ccccc1)Cc1ccco1	inactive	
O=C(C[C@@H]1C/C=C/CC[C@H](Cc2ccc(F)cc2)C(=O)OCCNC1=O)N[C@H](CO)Cc1ccccc1	active: 20.6 µM	
O=C(NC1CCCCC1)c1ccc2ccccc2c1O	inconclusive [inhibitor, single point]	
CCOC(=O)C1CCCN(C(=O)N2CCOCC2)C1 (stereo not given)	inactive	
Cc1nc2ccc(S(=O)(=O)N(C)CC(=O)N3CCc4ccccc43)cc2s1	inconclusive [inhibitor, single point]	
Cc1cc(=O)oc2cc(OCC3CC(c4ccc(Br)cc4)=NO3)ccc12 (stereo not given)	inconclusive [inhibitor, single point]	
CCOC(=O)c1c(NC(C)=O)c2c3c(sc2n1Cc1nc(-c2cccc(C)c2)oc1C)CCCC3	active: 3.66 µM	
CCCN(CCC)c1nc2ccccc2nc1C(C#N)C(=O)OCCOC (stereo not given)	inconclusive [inhibitor, single point]	
CCOC(=O)[C@H]1[C@H]2COc3cc(OC)ccc3[C@@H]2N2C(=O)N(c3ccc(Cl)cc3)C(=O)[C@@]12C	active: 18.4 µM	
CCOc1ccc(NC(=O)NCc2cccnc2)cc1	inconclusive [inhibitor, single point]	
CC1C(=O)N2CCCc3cc(S(=O)(=O)N4CCN(c5ccccc5F)CC4)cc1c32 (stereo not given)	inconclusive [inhibitor, single point]	
O=C1CC(N(CCc2ccccc2)C(=S)Nc2cc(Cl)ccc2Cl)C(=O)N1c1c(Cl)cccc1Cl (stereo not given)	active: 16.4 µM	
CC(C)Oc1ccc(CN2CCC2(C)C(=O)NCc2cccc3ccccc23)cc1 (stereo not given)	active: 11.6 µM	
Cc1cccc(OCCN2C(=O)C(=O)c3cc(C)ccc32)c1	active: 0.366 µM	
COc1ccc(-c2cc(-c3ccc(Cl)cc3)c(C#N)c(SCC(=O)O)n2)cc1	inconclusive [inhibitor, single point]	
Cc1cccc(C)c1NC(=O)C(c1ccccc1)N(C)CCc1ccccc1 (stereo not given)	inconclusive [inhibitor, single point]	
COc1ccc(NC(=O)CSc2n[nH]c(=O)n2Cc2ccccc2)cc1Cl	inconclusive [inhibitor, single point]	
OCCCc1nc2n(n1)C(c1cccc(Cl)c1)C=C(c1ccccc1)N2 (stereo not given)	inconclusive [inhibitor, single point]	
CCOC(=O)C1(CCCc2ccccc2)CCN(CCCn2cccn2)CC1	inactive	
CCOC(=O)c1ccc2c(c1)N(Cc1ccccc1C)C(=O)c1ccccc1S2=O (stereo not given)	active: 14.1 µM	
O=C1C=C(c2ccccc2)CC(c2cccs2)C1n1cnc([N+](=O)[O-])c1 (stereo not given)	inconclusive [inhibitor, partial curve]	
